{"source": "PubChem BioAssay AID485344", "about": "(National Center for Advancing Translational Sciences (NCATS), 2010)", "note": "The campaign covered roughly 340,000 compounds. About 6,900 (2%) were called active. No stated cut-off is given here; in the data, active means inhibition above about 30%; inactive means below that, where a call was filed. This is a selection; strong and weak results do not stand in their true shares. Where no call is shown, the source filed none.", "data": [{"molecular_target": "D(2) dopamine receptor (Homo sapiens) (UniProt P14416)", "sequence (P14416 whole entry, looked up)": "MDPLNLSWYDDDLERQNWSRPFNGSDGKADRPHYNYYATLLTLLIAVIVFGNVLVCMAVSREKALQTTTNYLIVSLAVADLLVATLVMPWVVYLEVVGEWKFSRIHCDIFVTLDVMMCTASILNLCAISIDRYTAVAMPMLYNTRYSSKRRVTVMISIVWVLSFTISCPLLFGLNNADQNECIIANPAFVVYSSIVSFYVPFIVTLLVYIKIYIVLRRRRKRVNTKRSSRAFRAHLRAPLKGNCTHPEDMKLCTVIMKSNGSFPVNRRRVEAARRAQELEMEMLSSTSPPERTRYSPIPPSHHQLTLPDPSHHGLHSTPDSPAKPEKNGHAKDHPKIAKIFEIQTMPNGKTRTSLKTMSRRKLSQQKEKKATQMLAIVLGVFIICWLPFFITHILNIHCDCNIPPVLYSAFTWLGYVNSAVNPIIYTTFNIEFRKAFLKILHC", "experiment": "HTS Assay for Allosteric Antagonists of the Human D2 Dopamine Receptor: Primary Screen for Antagonists; further: 0% is about no effect", "conditions": "HEK293 TREx D2 cells, calcium flux, dopamine EC80; at 10 µM; stronger effect = higher value", "how_it_was_run": "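Calcium flux kinetic readout in an inducible HEK293 TREx D2 line plated overnight at 30 C. After 180 s compound exposure, an EC80 dopamine challenge follows with another 180 s kinetic read to detect antagonism.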", "values": [{"compound": "O=C(COc1ccccc1F)Nc1ccc2nc(SCC(=O)N3CCOCC3)sc2c1", "inhibition": "-21.8%"}, {"compound": "CCOc1cc(C)c(Cl)cc1S(=O)(=O)NCCOC", "inhibition": "active: 32.3%"}, {"compound": "O=S(=O)(c1ccccc1)c1nc(-c2ccc(F)cc2)oc1NCc1ccccc1", "inhibition": "5.8%"}, {"compound": "COc1ccc(CNC(=O)CCCc2nnc3n(C(C)C)c(=O)c4sccc4n23)cc1", "inhibition": "14.1%"}, {"compound": "O=C(NCCc1ccccc1)c1ccc2c(c1)nc1n2CCOC1", "inhibition": "-0.903%"}, {"compound": "Cc1ccc(S(=O)(=O)Nc2cc(Cl)c3oc4c(c3c2)CCCC4)cc1", "inhibition": "-16.4%"}, {"compound": "Cc1c(-c2nsc(NC(=O)c3cccs3)n2)nnn1-c1ccc(F)cc1", "inhibition": "4.29%"}, {"compound": "CCOC(=O)c1cccc(NC(=O)CSc2ncc3c(n2)-c2ccc(Cl)cc2N(Cc2ccccc2)S3(=O)=O)c1", "inhibition": "-4.8%"}, {"compound": "COc1ccccc1CNC(=O)CCS(=O)(=O)c1ccc2c(c1)oc(=O)n2C", "inhibition": "-0.132%"}, {"compound": "CCOC(=O)C1(CCOc2ccccc2)CCN(Cc2ccc(-n3cccn3)cc2)CC1", "inhibition": "active: 35.2%"}, {"compound": "CCOc1ccc(CNC(=O)CSc2c3c(nc4cc(Cl)ccc24)CCCC3)cc1", "inhibition": "14.7%"}, {"compound": "CC1=C(C(=O)N2CCCCC2)C(c2ccc(Cl)cc2)n2c(nc3ccccc32)N1", "note": "(configuration not stated)", "inhibition": "1.88%"}, {"compound": "Cc1ccc(CN2C(=O)c3ccccc3Sc3ccc(C(=O)N4CCOCC4)cc32)cc1", "inhibition": "2.79%"}, {"compound": "Cc1cccc(C(=O)Nc2ccc(N3CC=C(c4ccccc4C)CC3)c(C(=O)O)c2)c1", "inhibition": "18.9%"}, {"compound": "CCOc1ccc(NC(=O)CSc2oc(-c3ccco3)nc2S(=O)(=O)c2ccccc2)cc1", "inhibition": "-10.8%"}, {"compound": "COc1ccc(-c2nc(C)c(CCNC(=O)c3ccc(C(F)(F)F)cc3)s2)cc1OC", "inhibition": "8.85%"}, {"compound": "Cc1ccc(NC(=O)c2oc3ccc(S(=O)(=O)N(C)C4CCCCC4)cc3c2C)c(C)c1", "inhibition": "21.6%"}, {"compound": "CCCNC(=O)c1cc2n(n1)CCCN(Cc1ccc(C)cc1)C2=O", "inhibition": "-17.8%"}, {"compound": "CCOC(=O)c1c(C)oc2nc(C)nc(NCCc3ccc(C)cc3)c12", "inhibition": "-5.66%"}, {"compound": "COc1cc(NC(=O)CN2CCCN(Cc3cccc(F)c3)S2(=O)=O)cc(OC)c1", "inhibition": "-13.2%"}, {"compound": "O=c1[nH]c(CN2CCN(c3ccccc3)CC2)nc2scc(-c3ccccc3)c12", "inhibition": "active: 31.9%"}, {"compound": "Cc1c(C(=O)N2CCCC2)oc2c1-c1nn(CC(=O)NCCCN3CCCCC3)cc1CC2", "inhibition": "active: 37.3%"}, {"compound": "CCCc1cc(N2CCN(c3ccccc3F)CC2)n2cnnc2n1", "inhibition": "14.3%"}, {"compound": "Cn1c(CN2CCOCC2)nc2cc(NC(=O)c3ccccc3[N+](=O)[O-])ccc21", "inhibition": "0.55%"}, {"compound": "CCOc1cccc2sc(N3CCN(C(=O)c4ccco4)CC3)nc12", "inhibition": "-24.3%"}, {"compound": "COc1cc(OC)c(NC(=O)c2ccc(-n3cnc4cccnc43)cc2)cc1Cl", "inhibition": "-5.59%"}, {"compound": "O=C(NCCCN1CCN(c2ccc(F)cc2)CC1)Nc1ccccc1Cl", "inhibition": "2.91%"}, {"compound": "O=C(CSc1nc2c([nH]c3ccccc32)c(=O)n1-c1ccccc1)N1CCCCC1", "inhibition": "-3.47%"}, {"compound": "CC(C)CCNC(=O)c1cc(-c2cccnc2)nc2ccc(S(=O)(=O)N3CCC(C)CC3)cc12", "inhibition": "-23.9%"}, {"compound": "COc1cccc(CC2(CO)CCCN(Cc3ccc4c(c3)OCCO4)C2)c1", "note": "(configuration not stated)", "inhibition": "active: 56.2%"}, {"compound": "COc1ccc(NC(=O)c2nnn(-c3ccc(C(C)C)cc3)c2C)c(OC)c1", "inhibition": "17.7%"}, {"compound": "Cc1cccc(-n2c3nc(=O)[nH]c(=O)c-3cc3ccc(Cl)cc32)c1C", "inhibition": "17.8%"}, {"compound": "CCOc1ccc(-c2cc(C(=O)NCCc3ccc(C)cc3)c3ccccc3n2)cc1", "inhibition": "0.483%"}, {"compound": "CCOC(=O)c1c(N)n(-c2ccc(OCC)cc2)c2nc3ccccc3nc12", "inhibition": "-2.79%"}, {"compound": "CC(=O)c1cccc(NC(=O)Cn2ccn3nc(-c4ccccc4)cc3c2=O)c1", "inhibition": "-25.9%"}, {"compound": "Cc1cc(Nc2cc(Cl)ccc2C)n2nc(-c3ccccc3)nc2n1", "inhibition": "4.25%"}, {"compound": "Cc1ccc(CN(Cc2cccn2-c2nnc(N3CCCC3=O)s2)C(=O)Nc2ccccc2Cl)cc1", "inhibition": "2.13%"}, {"compound": "Cc1cc(C)c2c(NC(=O)c3ccccc3Cl)c(C(=O)NCc3ccc(Cl)cc3)sc2n1", "inhibition": "11.2%"}, {"compound": "Cc1nc2c(-c3ccc(F)cc3)c(C)nn2c(C)c1CCC(=O)NCc1ccc(F)cc1", "inhibition": "8.05%"}, {"compound": "CCOC(=O)c1c(C)[nH]c(CCC(=O)NCc2ccc(OC)cc2OC)c1C", "inhibition": "9.02%"}, {"compound": "COc1ccc(OCCCn2c(C3CC(=O)N(c4ccc(F)cc4)C3)nc3ccccc32)cc1", "note": "(configuration not stated)", "inhibition": "-5.89%"}, {"compound": "CC(=O)Nc1cccc(NC(=O)CSc2nccn2Cc2ccccc2)c1", "inhibition": "-17.2%"}, {"compound": "CC1=C(c2ccc(C(C)C)cc2)S(=O)(=O)N=C1N1CCC(C(=O)NCc2ccc(C)o2)CC1", "inhibition": "10.2%"}, {"compound": "O=C(NC1CCCCC1)c1ccc(CSc2nc3cccnc3n2Cc2ccccc2)cc1", "inhibition": "13.4%"}, {"compound": "Cc1ccccc1-c1noc(-c2ccc(NCc3cccnc3)c([N+](=O)[O-])c2)n1", "inhibition": "15.9%"}, {"compound": "Cc1ccccc1NC(=O)c1c(C)oc2ccc(O)c(CN3CCCCCC3)c12", "inhibition": "20.4%"}, {"compound": "COc1ccc(C)cc1NC(=O)CN(C)S(=O)(=O)c1ccc2c(c1)c(=O)n(C)c(=O)n2C", "inhibition": "-21%"}]}]}
